Patent US20260250378A1 (AGENCY FOR SCIENCE TECHNOLOGY AND RESEARCH, published 2026)

Legend:
MsCANX_His = molecular target: T1, MsCANX_His (mouse, UniProt P35564); assay: BLI, IgG1 on AHC biosensor, MsCANX_His 200-0.39 nM
T1 construct: recombinant, C-terminal polyhistidine tag; also called recombinant mouse CANX protein with a polyhistidine tag at the C-terminus
T1 sequence (antigen, looked up): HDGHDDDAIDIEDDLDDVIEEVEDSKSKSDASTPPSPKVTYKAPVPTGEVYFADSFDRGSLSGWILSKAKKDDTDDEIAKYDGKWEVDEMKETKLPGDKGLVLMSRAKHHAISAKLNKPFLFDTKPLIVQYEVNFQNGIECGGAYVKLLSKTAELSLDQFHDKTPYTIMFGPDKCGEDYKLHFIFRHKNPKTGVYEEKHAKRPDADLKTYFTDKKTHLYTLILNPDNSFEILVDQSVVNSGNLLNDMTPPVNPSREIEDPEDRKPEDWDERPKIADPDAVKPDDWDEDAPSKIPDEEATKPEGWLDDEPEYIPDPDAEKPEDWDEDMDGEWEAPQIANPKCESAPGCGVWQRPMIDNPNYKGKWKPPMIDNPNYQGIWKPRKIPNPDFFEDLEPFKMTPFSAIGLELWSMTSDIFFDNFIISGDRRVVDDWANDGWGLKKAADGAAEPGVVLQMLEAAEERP
Description: The binding affinity of the 15 antibody clones to recombinant mouse CANX protein with a polyhistidine tag at the C-terminus (MsCANX_His) was measured by Bio-Layer Interferometry. The 15 antibody clones were loaded and captured by the anti-human IgG Fc capture (AHC) biosensors (FIG. 6). The biosensors were dipped into a range of MsCANX_His protein concentrations (from 200 nM to 0.39 nM, in 2-fold dilutions), the kinetics of the association and dissociation were then recorded.

[1] = molecular target: T2, recombinant human CNX protein with a polyhistidine tag at the C-terminus (HuCANX_His) (human, UniProt P27824 21-481, limits assumed); assay: BLI, IgG1 on AHC biosensor, HuCANX_His 200-3.13 nM
T2 construct: also called HuCANX with a His tag
T2 sequence (looked up): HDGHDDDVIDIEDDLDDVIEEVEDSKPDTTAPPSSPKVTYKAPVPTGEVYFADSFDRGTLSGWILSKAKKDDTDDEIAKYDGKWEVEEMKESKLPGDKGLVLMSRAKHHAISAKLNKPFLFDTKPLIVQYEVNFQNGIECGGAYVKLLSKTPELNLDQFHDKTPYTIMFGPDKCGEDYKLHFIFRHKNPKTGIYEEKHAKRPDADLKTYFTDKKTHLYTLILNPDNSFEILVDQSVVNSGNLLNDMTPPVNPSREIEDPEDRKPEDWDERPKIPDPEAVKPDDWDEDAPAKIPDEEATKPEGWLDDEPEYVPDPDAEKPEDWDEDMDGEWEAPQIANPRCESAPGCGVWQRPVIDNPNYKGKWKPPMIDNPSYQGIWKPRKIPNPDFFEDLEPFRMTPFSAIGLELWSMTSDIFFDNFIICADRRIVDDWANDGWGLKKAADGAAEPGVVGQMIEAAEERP
Description: The 5 antibody clones were loaded and captured by the anti-human IgG Fc capture (AHC) biosensors. The biosensors were dipped into a range of HuCANX_His protein concentrations (from 200 nM to 3.13 nM, in 2-fold dilutions), the kinetics of the association and dissociation were then recorded.

[2] = molecular target: T2, recombinant human CNX protein with a …; assay: ELISA, IgG1 coated 10 nM, His-tagged antigen titrated (EC50 is of the antigen), anti-His-HRP
Description: The 15 antibody clones were tested using ELISA against biotinylated recombinant HuCANX_hFc protein to assess binding avidity for the target, with an irrelevant IgG1 used as a negative control antibody. In brief, the 15 antibody clones were coated at 2 μg/ml onto the 96-well ELISA plates overnight at 4° C. After blocking with casein for 2 hours, the biotinylated antigen was added at different concentrations (3 times serial dilutions) and incubated for 1 hour. The wells were then washed with PBST and detected by HRP conjugated streptavidin. […] antibody clones were also tested in ELISA against recombinant HuCANX_His protein to assess binding affinity for the target, with an irrelevant IgG1 used as a negative control antibody. In brief, the 15 antibody clones were coated at 10 nM onto the 96-well ELISA plates overnight at 4° C. After blocking with casein for 2 hours, the antigen was added at different concentrations (3 times serial dilutions) and incubated for 1 hour. The wells were then washed with PBST and detected by HRP conjugated anti-His tag antibody.

B1: 1E1 IgG1 (antibody)
heavy: QVQLQESGGGVVRPGGSLRLSCAASGFTFDDYGMSWVRQAPGKGLEWVSGINWNGGSTGYADSVKGRFTISRDNAKNSLYLQMNSLRAEDTAVYYCARGIAVDYWGQGTLVTVSS[left out - human IgG1 constant region]
light: not shown
notes: also called IgG1 1E1; Igg1 1E1
In the case of B1, the Kd (MsCANX_His) is reported as 1.8 nM, the koff (MsCANX_His) is reported as 0.000102 s⁻¹ and the kon (MsCANX_His) is reported as 56900 M⁻¹ s⁻¹. It also gave a Kd [1] of 2.09 nM, a koff [1] of 7.03e-05 s⁻¹ and a kon [1] of 33700 M⁻¹ s⁻¹. For the same binder, the EC50 [2] was 41.4 nM.
